The other results are listed elsewhere or left out.

Our source for the binding signal values is publication PMC12136788.

The labels stand for the following.
T1: UNK ZnF1-3 (human, UniProt Q9C0B0 31-174)
T1 sequence: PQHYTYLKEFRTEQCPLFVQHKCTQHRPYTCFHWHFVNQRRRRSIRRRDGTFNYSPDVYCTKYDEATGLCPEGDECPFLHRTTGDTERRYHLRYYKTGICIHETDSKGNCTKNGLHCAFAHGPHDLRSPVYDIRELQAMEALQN

B1: chr17:49039638:49039639:-_ENSG00000008294_ENST00000262013|hu_mus|motif|central (ssRNA)
RNA: GGGAGUUCUACAGUCCGACGAUCCAUUCCGAACCCCAGGGAUUCCAUAAUAGAAAUAAAUACUGAAAUAACUACAUUGCGGAAUGAGCUUUUUACGCAUAGAAAUGAAGCCGUGGCCUCUAAAGACAGCAAAUGGGACAAUUCCAACAGAGGAUUGAGCAUCA
B2: chr4:108954403:108954404:+_ENSG00000138796_ENST00000309522|hu_hu|motif|central (ssRNA)
RNA: GGGAGUUCUACAGUCCGACGAUCAGUAUCCAGUCCGACAUAAUCUAGAAGCUCAAAUGGGCCCAUGGGGUAACCGGCUCCGGAUUUCAUAGCAGUGUCAAUGUCUUCUUUGGAUGCGUCACCUCGUUCAUACAGCCUGAUUGCCAACAGAGGAUUGAGCAUCA
B3: chr2:125499325:125499326:+_ENSMUSG00000091337_ENSMUST00000164756|mus_hu|motif|central (ssRNA)
RNA: GGGAGUUCUACAGUCCGACGAUCGAGUUCUUCGGUCAGACGAUUGACAACCAUCAGUGAAAAAAGCUCUUCGAUAAAAGCGGACUGAUCAAACGGGGUCUUCUCAUAAUGCAUCUGAAACCCGCCAUCCAGGGCUGGUUCUCUCAACAGAGGAUUGAGCAUCA
B4: chr19:16212804:16212805:+_ENSG00000167460_ENST00000300933|hu_mus|hu_hu_hu_mus_False|48_108 (ssRNA)
RNA: GGGAGUUCUACAGUCCGACGAUCAACAAAUAUGCAAUGAAGGAAAGAUGUAACAUGGAACAGCAUUAAAGCUCAGUCAGAAGGCACGUGGGUAAUUAUGAUCACCCCAGCAUUCUCGCUUGGAAUGCUUAAAGACAAUCUGUUCAACAGAGGAUUGAGCAUCA
B5: chr14:66974463:66974464:+_ENSMUSG00000022044_ENSMUST00000074523|mus_hu|mus_mus_mus_hu_False|8_108 (ssRNA)
RNA: GGGAGUUCUACAGUCCGACGAUCUUGUAGGAUGAUUUAUUCAGGGGAUCGGCCAGGAAGCAGGAGCAGAACAAGGACACCAGCGGGAGCUCCUUCAUCUUCUCUUUGUAGGCAGCAAGGGUCAUGUUGGCUGGAAUUGGUGGCCAACAGAGGAUUGAGCAUCA
B6: chr6:114281168:114281169:-_ENSG00000196591_ENST00000368632|hu_hu|hu_hu_hu_mus_True|68_108 (ssRNA)
RNA: GGGAGUUCUACAGUCCGACGAUCUUCCAUUUUUCUGUAUAAACCAUAAUUUAGCAGCAAGUUAUGAGUCAUGCGGAUUCUAUGAGGCUUCAUGGGAUGACCCUGGCCAUAAUAAUAAUUGCCAAUAUCACCAUCAUAGUAGUACAACAGAGGAUUGAGCAUCA
B7: chr5:46091440:46091441:-_ENSMUSG00000015882_ENSMUST00000045586|mus_mus|FALSE|FALSE (ssRNA)
RNA: GGGAGUUCUACAGUCCGACGAUCGAUAACUUUACCACAAUGGGUAAUUUCUCUUCCUAAAUUUUUCUAUGUAGGAACACUAUUUUAUGAAUGAAUUCUAGAUUAGGGUGCUGCCCACACACACAUUAAUCAUGAAAGAUACAUCAACAGAGGAUUGAGCAUCA
B8: chr10:85912055:85912056:+_ENSG00000165678_ENST00000372134|hu_hu|FALSE|FALSE (ssRNA)
RNA: GGGAGUUCUACAGUCCGACGAUCUGAGUCACUUCAUUUCUUUCUGUUGCCUCCAGUUGCCAGCAUAGUUGCAACUCGCAUAAAUAUAUUUAAUGUAUCCAUGUAGAUACUCAGCAUCGAGUUAAUGGGAUCAUAUUUUUGAACCAACAGAGGAUUGAGCAUCA
B9: 54841893_54842013_1751_CDS_ENSG00000102316_ENST00000375058|human|control|control (ssRNA)
RNA: GGGAGUUCUACAGUCCGACGAUCGGCACCAGCACUGAAGCCACCACUGGUGCUGGCACUGGCACUGGCACUGUUAUUGGUACUGGUACUGGCACCAGUGCUGGCACUGCCACUCUCUUGGGCUUUGGCUUUAGCUUCUGCUCCCAACAGAGGAUUGAGCAUCA
B10: chrX:11616105:11616106:-_ENSMUSG00000040363_ENSMUST00000043441|mus_mus|FALSE|FALSE (ssRNA)
RNA: GGGAGUUCUACAGUCCGACGAUCGAUGUUAUAACACGGCAAGAGGGAGCUUUCAGCAAACUCAAACUCAAACAAAUCGCUAUAGGUAUCCUCUUCCUCAUCUGGGUCUUCUGGUCCUGGGGGAUUAGCCAAAACAUCGUACCCCAACAGAGGAUUGAGCAUCA
B11: chr18:211299:211300:+_ENSG00000101557_ENST00000383589|hu_hu|motif|central (ssRNA)
RNA: GGGAGUUCUACAGUCCGACGAUCUCUGGAUUAUAGAAAUGAUCAACAAAUAACAUUUAUUUUCACAUCUAAGCAUAAAUACGGAAAUGAAGAUUACUGUUCACUUUCCUCUUCCAUUAUUUCAACUCUGCGAGGCCCAUAGAGCAACAGAGGAUUGAGCAUCA
B12: chr10:70182154:70182155:-_ENSG00000138346_ENST00000358410|hu_hu|FALSE|FALSE (ssRNA)
RNA: GGGAGUUCUACAGUCCGACGAUCUAGGUUUAUCACUGCAUUGGCCACUUUGUCUGAUCCACACUCCAGCUUGCCCUCAUAGGUCAGCUUAUUACUUAAGGACAUAAUUUUACUGUUCAUUCUGUACUGCACGGUUAACUGUACCAACAGAGGAUUGAGCAUCA
B13: chr8:121872745:121872746:+_ENSMUSG00000031839_ENSMUST00000034300|mus_hu|FALSE|FALSE (ssRNA)
RNA: GGGAGUUCUACAGUCCGACGAUCCUUUGUGGUGACAAUCAUAUGGAUCACCUUCCAGGUCAUCAGUAUUGGCCUCUAGGUUUAGCACUCCUGGCACUGCAUUUUUGAGUGGCCAGAGAUAAAGGUAUUAUCCCUGUCUUCUAUCAACAGAGGAUUGAGCAUCA
B14: chr12:49580477:49580478:-_ENSG00000167552_ENST00000550767|hu_mus|FALSE|FALSE (ssRNA)
RNA: GGGAGUUCUACAGUCCGACGAUCCACUGCCCGGGGCACAUGCUUGCCAGCUCCUGUCUCACUGAAGAAGGUGUUGAAGGAGUCAUCUCCUCCCCCAAUGGUCUUGUCACUUGGCAUCUGGCCAUCAGGCUGGAUGCCAUGUUCCAACAGAGGAUUGAGCAUCA

The target in this assay is T1, UNK ZnF1-3. The assay is described as follows: nsRBNS (natural sequence RNA bind-n-seq); RBNS binding buffer (assumed for nsRBNS): 25 mM Tris pH 7.5, 150 mM KCl, 3 mM MgCl2, 0.01% Triton X-100, 500 ug/ml BSA, 20 U/ml SUPERase-In, 4 C; UNK is unkempt and MSI1 is Musashi-1; names of the RNAs are library labels; protein concentration not given here; high values mean tight binding.
As for B1, the binding signal amounted to 1.77 enrichment R.

For B2, the binding signal came out at 1.51 enrichment R.

Regarding B3, the binding signal is 0.801 enrichment R.

Consider B4, for which the binding signal came to 0.968 enrichment R.

B5 showed a binding signal of 2.51 enrichment R.

In the case of B6, the binding signal was 1.17 enrichment R.

B7 displayed a binding signal of 0.531 enrichment R.

Molecule B8 registered a binding signal of 1.03 enrichment R.

With B9, the binding signal stood at 0.504 enrichment R.

B10 yielded a binding signal of 1.3 enrichment R.

B11 showed a binding signal of 1.05 enrichment R.

B12: the binding signal came out at 0.728 enrichment R.

B13 came in with a binding signal of 0.481 enrichment R.

As for B14, the binding signal came out at 0.673 enrichment R.
